Experimental data as given in PubChem BioAssay AID540267 (National Center for Advancing Translational Sciences (NCATS), 2011).
About 530 (0.16%) of roughly 340,000 compounds were called active. This list was built around the results that the source calls inconclusive (neither active nor inactive); the mix of calls is not that of the screen. Cut-off read from the data, not from the text of the source: active = activity change below about -80%; inconclusive = between about -30% and that limit; inactive = weaker than that.

test: Small Molecules that selectively kill Giardia lamblia: qHTS; details: Giardia lamblia trophozoite viability; at 7.66 µM; stronger effect = lower value;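 note: parasites exposed to compound for two days anaerobically before the ATP read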
How it was run: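 Giardia lamblia trophozoites (100 cells/well) were incubated with compounds for 48 h at 37 deg C under anaerobic conditions. Viability was read as ATP content by one-step luminescence after 15-30 min at room temperature.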
% is set by controls: 0 for no effect and ±100 for the full control effect.

| SMILES | activity change |
| --- | --- |
| Cc1ccc(-c2n[nH]c(=S)n2/N=C/c2ccc(C(=O)O)cc2)cc1 | inconclusive: -30.2% [inhibitor] |
| COc1ccc(-c2nc3nc(C)cc(C)n3n2)cc1 | inconclusive: -33.9% [inhibitor] |
| CN(C)c1ccc(/C=C/c2nc3ccccc3c(=O)[nH]2)cc1 | active: -91.9% |
| COc1cc(OC)c2c(-c3ccccc3)cc(=O)oc2c1C(CCN1CCCCC1)c1ccc(N(C)C)cc1 (stereo not given) | inconclusive: -43% [inhibitor] |
| CCN(CC)C(=O)c1ccc(C(=O)Nc2ccc(F)cc2)cc1 | inconclusive: -32.7% [inhibitor] |
| CCc1ccc(N2C(=O)CN(Cc3ccccc3)C2=S)cc1 | inconclusive: -44.3% [inhibitor] |
| O=C1CSC(c2ccc(F)cc2)N1c1c(F)cccc1F (stereo not given) | inconclusive: -46% [inhibitor] |
| O=C1OC[C@@H]2CCCN2C(=O)[C@@H](CC(=O)N(CCO)Cc2ccccc2)C/C=C\CC[C@H]1Cc1ccc(F)cc1 | inconclusive: -33.6% [inhibitor] |
| O=C1CC(N2CCN(c3ccccn3)CC2)C(=O)N1c1ccc(Cl)cc1 (stereo not given) | inconclusive: -30.2% [inhibitor] |
| CC(C)(C)CN1CCNC[C@H]1Cc1cccc2ccccc12 | inconclusive: -33.4% [inhibitor] |
| O=S(=O)(Cc1noc(-c2ccc(Cl)cc2)n1)Cc1ccco1 | inconclusive: -30.4% [inhibitor] |
| O=[N+]([O-])c1cccc(NC(=S)N2CCc3ccccc3C2)c1 | inconclusive: -36% [inhibitor] |
| COCCOC(=O)c1[nH]c2c(c1C)C(=O)CC(c1ccc(OC)cc1)C2 (stereo not given) | inconclusive: -33.3% [inhibitor] |
| CCOC(=O)c1ccccc1NC(=O)N[C@@H](C)C(=O)OC | inactive: -8.18% |
| CCOC(CCNC(=O)c1cn(C)c(=O)c2c1c1ccccc1n2C)OCC | inconclusive: -33.3% [inhibitor] |
| O=C(COC(=O)c1ccc(Br)o1)Nc1ncc([N+](=O)[O-])s1 | inconclusive: -54.6% [inhibitor] |
| Oc1cccc(-c2nnc(-c3cccc(O)c3)nn2)c1 | active: -80.5% |
| O=C(O)c1ccc(-c2nc(-c3ccc(Cl)c(Cl)c3)cs2)cc1 | inconclusive: -35.5% [inhibitor] |
| CCCOc1cccc(C(=O)Nc2ccc3c(c2)OCCO3)c1 | inconclusive: -50.6% [inhibitor] |
| c1ccc2c(-c3nnc4n3CCCCC4)cc(-c3ccncc3)nc2c1 | inconclusive: -30.5% [inhibitor] |
| COc1ccc(/C=C/c2nc3ccccc3n2C)cc1 | inconclusive: -76.8% [inhibitor] |
| O=C(Cc1c(Cl)cccc1Cl)Nc1cccnc1 | inconclusive: -32.2% [inhibitor] |
| CCOC(=O)c1nnn(CC(=O)Nc2cc(F)ccc2F)c1C(=O)OCC | inconclusive: -35.3% [inhibitor] |
| Cc1cc(OCC(O)CN2CCc3ccccc3C2)ccc1Cl (stereo not given) | inactive: 24.1% |
| O=C(Nc1ccccc1F)c1ccc([N+](=O)[O-])s1 | inconclusive: -40% [inhibitor] |

| SMILES | activity change |
| --- | --- |
| CCn1cc([N+](=O)[O-])c(C(=O)N2N=C3/C(=C/c4cccs4)CCCC3C2c2cccs2)n1 (stereo not given) | inactive: 0.12% |
| C=CCn1c(-c2cccs2)nc2ccccc21 | inactive: -1.41% |
| O=C(c1ccc([N+](=O)[O-])o1)N1CCOCC1 | inconclusive: -79.2% [inhibitor] |
| Cc1ccc(CN2C(=O)N/C(=C\c3ccc(N4CCOCC4)cc3)C2=O)cc1 | inactive: -3.53% |
| CCOc1cc(CNc2ccc(CNc3ncn[nH]3)cc2)ccc1OCc1ccccc1 | inactive: 8.31% |
| Cn1c(O)c(N=NC(=O)c2ccccc2O)c2ccccc21 | inconclusive: -31.5% [inhibitor] |
| Cc1ccccc1CC(=O)Nc1ccc2c(c1)CCC2 | inconclusive: -35.3% [inhibitor] |
| COc1c(O)cc2oc(-c3ccc(O)cc3)cc(=O)c2c1O | inconclusive: -39.6% [inhibitor] |
| Cc1cc(C)cc(N=c2c([N+](=O)[O-])nn(-c3ccc4c(c3)OCCO4)n2O)c1 | inconclusive: -51.4% [inhibitor] |
| CC1(C)O[C@@H]2C[C@H]3[C@@H]4CCC5=CC(=O)CC[C@]5(C)[C@@]4(F)[C@@H](O)C[C@]3(C)[C@]2(C(=O)CCl)O1 | inconclusive: -32.3% [inhibitor] |
| CC(C(=O)OCC(=O)c1cccc([N+](=O)[O-])c1)N1C(=O)C2C3C=CC(C3)C2C1=O (stereo not given) | inactive: -15.3% |
| CC1CC(C)CN(CC(O)COCc2ccccc2)C1 (stereo not given) | inconclusive: -33.1% [inhibitor] |
| O=C(CNc1cc(S(=O)(=O)N2CCOCC2)ccc1NCC1CCCO1)Nc1ccc(C(F)(F)F)cc1 (stereo not given) | inactive: 11% |
| Cc1nc2cc(NC(=O)Nc3cccc(F)c3)ccc2n1C | inconclusive: -42.6% [inhibitor] |
| COc1cc(/C=C2/C(=O)N(C)C(=S)N2C)ccc1OCc1cccc(F)c1 | inconclusive: -31.4% [inhibitor] |
| O=C(CSc1nc(=O)n2ccccc2n1)Nc1ccc2c(c1)OCO2 | inactive: 11.2% |
| O=C(N/C(=C/c1cccc([N+](=O)[O-])c1)C(=O)N1CCCCCC1)c1cccs1 | inactive: -2.96% |
| CC(=O)NC(Cc1ccc(F)cc1)C(=O)NC1CCN(S(=O)(=O)c2ccccc2)CC1 (stereo not given) | inconclusive: -31.7% [inhibitor] |
| O=C(Nc1ccc(F)cc1)NC1CCCCCCC1 | inconclusive: -36.4% [inhibitor] |
| Nc1cc(=O)[nH]c(SCC(=O)N2CCN(S(=O)(=O)c3ccc4ccccc4c3)CC2)n1 | inconclusive: -36.4% [inhibitor] |
| CC(=O)N=C1C=CC(=CN(O)C(C)(C)Cc2ccccc2)C=C1 | inconclusive: -45% [inhibitor] |
| O=C(Nc1ccc2c(c1)OCCO2)c1cc(-c2ccccn2)nc2ccc(Br)cc12 | inconclusive: -47.2% [inhibitor] |
| CCNC(=S)N/N=C/c1cc(C)n(-c2ccc(Cl)cc2)c1C | inactive: -21.1% |
| CCOC(=O)c1c(C)[nH]c(C(=O)N/N=C/c2ccc(OC)c(OC)c2)c1C | inconclusive: -33.2% [inhibitor] |
| NC(=O)CCCn1c(C(=O)c2ccc(Cl)cc2)c2ccc([N+](=O)[O-])cc2[n+]1[O-] | active: -87.1% |

| SMILES | activity change |
| --- | --- |
| COc1ccc(-c2cc3nc4n(c(=O)c3s2)CCCCC4)cc1 | inconclusive: -31.8% [inhibitor] |
| COc1cccc(C(C(=O)NC(C)(C)C)N(Cc2ccc(C)cc2)C(=O)CCC(=O)Nc2cc(C)on2)c1OC (stereo not given) | inconclusive: -32% [inhibitor] |
| COC(=O)c1cc(-c2ccc(S(=O)(=O)N3CCCC(C)C3)cc2)c(C(F)(F)F)s1 (stereo not given) | inconclusive: -32.1% [inhibitor] |
| CC(=O)Nc1ccc(S(=O)(=O)N[C@@H](C)C(=O)OCc2cc([N+](=O)[O-])cc3c2OCOC3)cc1 | inactive: 11% |
| CN(CCOc1ccc(Cl)cc1)C(=O)c1cc([N+](=O)[O-])ccc1N1CCOCC1 | inactive: -10.7% |
| CCOc1cccc(C(=O)Nc2ccc3oc(-c4cccnc4)nc3c2)c1 | inconclusive: -35.8% [inhibitor] |
| COc1cccc(CN(C)C(=O)CSCC(=O)Nc2cccc(C)c2)c1OC | inconclusive: -36.4% [inhibitor] |
| O=C(NCCO)c1cc([N+](=O)[O-])cc2c1C=Cc1ccccc1O2 | inconclusive: -40.3% [inhibitor] |
| COc1ccccc1NC(=O)c1ccc2c(c1)N(CC(=O)NC(C)(C)C)C(=O)C(C)(C)O2 | inactive: 26.9% |
| CC1CC(C)CN(S(=O)(=O)c2ccc(C(=O)Nc3sccc3C(N)=O)cc2)C1 (stereo not given) | inactive: 5.94% |
| COC(=O)c1c(N)sc(C(=O)NCCc2ccccc2)c1C | inconclusive: -33.3% [inhibitor] |
| Cc1ccc2[nH]c3c(c2c1)CN(C(=O)CN1CCCc2ccccc21)CC3 | inactive: 7.87% |
| Cc1[nH]nc(SCC(=O)N2CCCCCC2)c1[N+](=O)[O-] | inconclusive: -32.7% [inhibitor] |
| O=c1c2ccccc2ncn1-c1ccc([N+](=O)[O-])cc1[N+](=O)[O-] | inconclusive: -32.6% [inhibitor] |
| CNc1nnc(-c2ccc(N(C)C)cc2)s1 | inconclusive: -50.6% [inhibitor] |
| COC(=O)CSc1nc(C)c(C(=O)Nc2ccccc2C)c(-c2ccc(Cl)cc2)c1C#N | inconclusive: -31.4% [inhibitor] |
| COc1cc(C(=O)NCCNc2nc3c(C)c(C)ccc3cc2C#N)cc(OC)c1OC | inactive: -1.27% |
| COc1ccc(-c2cc(C(F)(F)F)nc(SCC(=O)Nc3ccc4c(c3)OCO4)n2)cc1 | inconclusive: -32.6% [inhibitor] |
| COc1ccc(-c2cc3ccccc3oc2=O)cc1NC(=O)c1ccc([N+](=O)[O-])o1 | active: -93.7% |
| CCOC(=O)C(=NC(C)C)NNc1cc(Cl)ccc1Cl | inactive: 4.45% |
| O=C(NCc1cccc(F)c1)C1CCN(C(=O)c2sccc2-n2cccc2)CC1 | inconclusive: -35.1% [inhibitor] |
| O=c1cc(-c2ccc(O)cc2)oc2cc(O[C@@H]3O[C@H](CO)[C@H](O)[C@H](O)[C@H]3O)cc(O)c12 | inconclusive: -31.1% [inhibitor] |
| COc1cccc(CN2CC(C(=O)NCCN3CCOC3=O)CCC2=O)c1 (stereo not given) | inconclusive: -32.8% [inhibitor] |
| CCCCCCN1C=C/C(=C\C=C(C#N)C#N)c2ccccc21 | inactive: -29.1% |
| COc1ccc(OCC(=O)Nc2ccc3c(c2)nc(CCN2CCCCC2)n3C)cc1 | inconclusive: -32.4% [inhibitor] |
